115 sequences from the BET-seq Pho4 binding data (Le et al. 2018) can be followed below.

This is one part of the list. The energies were worked out here from pooled read counts, against the library average; single values are noisy.

In this experiment the target is T1, Pho4 (S. cerevisiae) (UniProt P07270).
T1 sequence: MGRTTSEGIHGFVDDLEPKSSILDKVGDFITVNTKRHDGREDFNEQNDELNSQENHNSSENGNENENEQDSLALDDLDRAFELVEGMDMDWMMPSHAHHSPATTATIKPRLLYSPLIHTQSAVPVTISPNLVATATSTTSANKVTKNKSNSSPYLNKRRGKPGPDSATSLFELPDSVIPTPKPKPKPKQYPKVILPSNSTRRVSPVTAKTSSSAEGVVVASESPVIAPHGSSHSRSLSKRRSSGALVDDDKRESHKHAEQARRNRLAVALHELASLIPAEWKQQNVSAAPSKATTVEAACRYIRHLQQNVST
The experiment in a line: relative binding free energy (BET-seq); higher = weaker binding. Particulars: reference: library average.
In the case of GTCGGCACGTGGATTG, the “relative binding free energy” value was determined as 0.04 kcal/mol.

For GTGGCCACGTGGGCCG, the “relative binding free energy” value was -0.11 kcal/mol.

For the sequence GATTTCACGTGTGAAG, the “relative binding free energy” value amounted to 0.5 kcal/mol.

In the case of AGCAACACGTGGGGAG, the “relative binding free energy” value is 0.09 kcal/mol.

For the sequence TAAGGCACGTGGAGCG, the “relative binding free energy” value was -0.02 kcal/mol.

Take ATCGTCACGTGGGAGT: the “relative binding free energy” value was -0.05 kcal/mol.

Consider CGGATCACGTGGAAGG, for which the “relative binding free energy” value stood at 0.27 kcal/mol.

In the case of ACTGGCACGTGGTGTT, the “relative binding free energy” value is -0.2 kcal/mol.

Turning to TTCTGCACGTGAGATA, the “relative binding free energy” value stood at 0.38 kcal/mol.

On to GAGTGCACGTGGCGCG, for which the “relative binding free energy” value was -0.01 kcal/mol.

Turning to GTGGACACGTGGGGGC, the “relative binding free energy” value was -0.04 kcal/mol.

On to TTAGACACGTGGGTAT, for which the “relative binding free energy” value is -0.03 kcal/mol.

For the sequence TTTTTCACGTGAAGAG, the “relative binding free energy” value came to 0.49 kcal/mol.

Take GTTTTCACGTGTACTG: the “relative binding free energy” value came out at 0.32 kcal/mol.

On to CGTGACACGTGTCTGT, for which the “relative binding free energy” value is -0.05 kcal/mol.

Turning to GTTGGCACGTGTAGGA, the “relative binding free energy” value was 0.09 kcal/mol.

As for ATTTGCACGTGATCTT, the “relative binding free energy” value is -0.07 kcal/mol.

Regarding GAAATCACGTGGAGGG, the “relative binding free energy” value was 0.15 kcal/mol.

For the sequence GGTAGCACGTGTCTTA, the “relative binding free energy” value turned out to be 0 kcal/mol.

Take GGGTACACGTGGGCCG: the “relative binding free energy” value is -0.08 kcal/mol.

Turning to AGTATCACGTGGAGGT, the “relative binding free energy” value is 0.09 kcal/mol.

For the sequence TGTGCCACGTGAGTTA, the “relative binding free energy” value stood at 0.14 kcal/mol.

As for GTTAGCACGTGGTAAA, the “relative binding free energy” value is -0.12 kcal/mol.

On to TGTGACACGTGCTATG, for which the “relative binding free energy” value is -0.07 kcal/mol.

On to GGCAACACGTGGGTTG, for which the “relative binding free energy” value was -0.13 kcal/mol.

As for AAGTGCACGTGATTGG, the “relative binding free energy” value is -0.02 kcal/mol.

GGCGCCACGTGAGTGG: the “relative binding free energy” value is 0.08 kcal/mol.

As to ATTGGCACGTGATAAA, the “relative binding free energy” value came out at 0.01 kcal/mol.

As for GGGGGCACGTGACACG, the “relative binding free energy” value is -0.1 kcal/mol.

For ATCGGCACGTGATGTA, the “relative binding free energy” value was found to be 0.08 kcal/mol.

As to TATAACACGTGTGGAT, the “relative binding free energy” value turned out to be 0.12 kcal/mol.

In the case of GTTATCACGTGGCCGT, the “relative binding free energy” value stood at 0.26 kcal/mol.

Consider GAGTTCACGTGTCGTG, for which the “relative binding free energy” value amounted to 0.31 kcal/mol.

On to GGTGGCACGTGCATTG, for which the “relative binding free energy” value is -0.07 kcal/mol.

For TGTGGCACGTGTATGG, the “relative binding free energy” value was found to be 0.01 kcal/mol.

For CGTTACACGTGGGTCT, the “relative binding free energy” value was determined as 0.05 kcal/mol.

With GGGAGCACGTGAAGTT, the “relative binding free energy” value came out at 0.24 kcal/mol.

Take GTTATCACGTGAGCGG: the “relative binding free energy” value was found to be 0.35 kcal/mol.

Take TATGTCACGTGGTTGG: the “relative binding free energy” value is 0.07 kcal/mol.

Turning to ATCGTCACGTGTCTGG, the “relative binding free energy” value was found to be 0.08 kcal/mol.

For AGCTGCACGTGGAGGT, the “relative binding free energy” value is -0.06 kcal/mol.

Take TCAGGCACGTGCGGTT: the “relative binding free energy” value is -0.17 kcal/mol.

Regarding AGGTGCACGTGAGATG, the “relative binding free energy” value is 0.23 kcal/mol.

CTAGTCACGTGGGCTT: the “relative binding free energy” value is 0.03 kcal/mol.

As to TATCGCACGTGTGGTT, the “relative binding free energy” value amounted to 0.01 kcal/mol.

For GTTCGCACGTGTGTTC, the “relative binding free energy” value came out at 0.07 kcal/mol.

For CTGTACACGTGCGGTT, the “relative binding free energy” value was -0.01 kcal/mol.

As for GTGTTCACGTGCTAGT, the “relative binding free energy” value is 0.16 kcal/mol.

For TTCATCACGTGAGGTA, the “relative binding free energy” value stood at 0.39 kcal/mol.

For TGGGACACGTGGGGCC, the “relative binding free energy” value was 0.03 kcal/mol.

As to AATTACACGTGTGCTG, the “relative binding free energy” value is 0.06 kcal/mol.

For the sequence TGAGGCACGTGTATGC, the “relative binding free energy” value is -0.09 kcal/mol.

Take ATTTACACGTGATGGG: the “relative binding free energy” value was 0.28 kcal/mol.

For the sequence GCGTGCACGTGTTGTT, the “relative binding free energy” value is 0.14 kcal/mol.

CTGATCACGTGTAGGT: the “relative binding free energy” value came out at 0.11 kcal/mol.

Consider TAGATCACGTGAAGGT, for which the “relative binding free energy” value amounted to 0.34 kcal/mol.

On to TGTGTCACGTGTTCTC, for which the “relative binding free energy” value was 0 kcal/mol.

Turning to TTTAACACGTGCGTGT, the “relative binding free energy” value was -0.08 kcal/mol.

Consider GTTGACACGTGGTGCT, for which the “relative binding free energy” value was -0.08 kcal/mol.

For GATCACACGTGTGTAT, the “relative binding free energy” value was determined as 0.18 kcal/mol.

For GTATACACGTGGCGGT, the “relative binding free energy” value worked out at 0.09 kcal/mol.

In the case of AGTTGCACGTGGGACT, the “relative binding free energy” value was -0.1 kcal/mol.

As for TGATACACGTGGTTAA, the “relative binding free energy” value was -0.02 kcal/mol.

With AGTTGCACGTGGCTCT, the “relative binding free energy” value was -0.06 kcal/mol.

In the case of AGTGCCACGTGTGGTC, the “relative binding free energy” value is -0.14 kcal/mol.

Regarding CGGTTCACGTGAGGCT, the “relative binding free energy” value was found to be 0.25 kcal/mol.

Consider TTGATCACGTGGGCCG, for which the “relative binding free energy” value was 0.01 kcal/mol.

GTTGGCACGTGAGAGG: the “relative binding free energy” value came out at 0.13 kcal/mol.

As to GGGAACACGTGATAGT, the “relative binding free energy” value was determined as 0.21 kcal/mol.

Regarding CGGTTCACGTGGGAAT, the “relative binding free energy” value came out at 0.19 kcal/mol.

For GGTTTCACGTGTATAG, the “relative binding free energy” value turned out to be 0.22 kcal/mol.

GTGTACACGTGATAAG: the “relative binding free energy” value is 0.25 kcal/mol.

For the sequence CTTGACACGTGTGTGA, the “relative binding free energy” value is -0.06 kcal/mol.

For GATATCACGTGATGAG, the “relative binding free energy” value was 0.32 kcal/mol.

Take TGGGCCACGTGAGGCT: the “relative binding free energy” value was 0.08 kcal/mol.

GTCGTCACGTGAATTT: the “relative binding free energy” value was found to be 0.42 kcal/mol.

Consider AATTTCACGTGACTGT, for which the “relative binding free energy” value amounted to 0.46 kcal/mol.

Consider AGGTGCACGTGTATGA, for which the “relative binding free energy” value was determined as 0 kcal/mol.

AACTGCACGTGGTTAG: the “relative binding free energy” value was -0.09 kcal/mol.

Consider TTTAGCACGTGACGTG, for which the “relative binding free energy” value was 0.03 kcal/mol.

For the sequence AAATTCACGTGTTAAG, the “relative binding free energy” value was 0.19 kcal/mol.

On to ATGGTCACGTGCCTGG, for which the “relative binding free energy” value worked out at 0.05 kcal/mol.

TATAGCACGTGGGCTG: the “relative binding free energy” value is -0.21 kcal/mol.

Turning to AGGTACACGTGGGCGG, the “relative binding free energy” value is -0.02 kcal/mol.

With TGGGGCACGTGAAGAC, the “relative binding free energy” value worked out at 0.13 kcal/mol.

For AGTTACACGTGTTGCA, the “relative binding free energy” value turned out to be 0.09 kcal/mol.

On to ATGGACACGTGGCGAG, for which the “relative binding free energy” value was -0.07 kcal/mol.

Regarding GGCGACACGTGTGTGA, the “relative binding free energy” value was 0.29 kcal/mol.

With TTATTCACGTGTTATC, the “relative binding free energy” value was determined as 0.29 kcal/mol.

As for CTGTGCACGTGTTGCG, the “relative binding free energy” value is -0.03 kcal/mol.

In the case of TTTTGCACGTGGTCGA, the “relative binding free energy” value is -0.07 kcal/mol.

As to CTAAGCACGTGGTTGT, the “relative binding free energy” value was -0.29 kcal/mol.

Take TGCAACACGTGGATTT: the “relative binding free energy” value was found to be 0.29 kcal/mol.

Turning to ACTGGCACGTGGGCGT, the “relative binding free energy” value is -0.21 kcal/mol.

Take GGGGACACGTGAGGGC: the “relative binding free energy” value is 0.32 kcal/mol.

As for CGTTACACGTGGTGAG, the “relative binding free energy” value was -0.02 kcal/mol.

For GTTCGCACGTGTGTGG, the “relative binding free energy” value is 0.05 kcal/mol.

On to CTAAACACGTGTGGTT, for which the “relative binding free energy” value is -0.04 kcal/mol.

For the sequence TGAGGCACGTGAGAAG, the “relative binding free energy” value was -0.03 kcal/mol.

On to CGTGGCACGTGAATGA, for which the “relative binding free energy” value was 0.14 kcal/mol.

For the sequence TTGTTCACGTGGGAAA, the “relative binding free energy” value turned out to be 0.22 kcal/mol.

In the case of TATCGCACGTGGGCGT, the “relative binding free energy” value is -0.22 kcal/mol.

For TTTGGCACGTGTAAGC, the “relative binding free energy” value was determined as 0.02 kcal/mol.

Consider TGTTGCACGTGGTTGC, for which the “relative binding free energy” value was -0.07 kcal/mol.

CATAACACGTGGGAGT: the “relative binding free energy” value is -0.02 kcal/mol.

Turning to GTGGCCACGTGAAATG, the “relative binding free energy” value was determined as 0.27 kcal/mol.

With AGCTTCACGTGGTGTA, the “relative binding free energy” value was determined as 0.19 kcal/mol.

As for ATAAACACGTGCGGTA, the “relative binding free energy” value was 0.2 kcal/mol.

For the sequence TGGATCACGTGGATTG, the “relative binding free energy” value is 0.15 kcal/mol.

As to TCAGTCACGTGATGAT, the “relative binding free energy” value came to 0.4 kcal/mol.

With GGTGGCACGTGGACAG, the “relative binding free energy” value is -0.06 kcal/mol.

As to TTTGTCACGTGTAAAC, the “relative binding free energy” value is 0.31 kcal/mol.

Regarding TTACGCACGTGTGGGA, the “relative binding free energy” value is -0.06 kcal/mol.

As for TATTTCACGTGGGGTA, the “relative binding free energy” value is 0.15 kcal/mol.

With TGGTACACGTGTAGAA, the “relative binding free energy” value turned out to be 0.13 kcal/mol.
